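Growth conditions: 96-well plates. Treatment: test compound, 48 hours, 5 concentrations. Analysis: linear interpolation between bracketing concentrations; unreached endpoints set to highest concentration. At the GI50, growth is halved. TGI: total growth inhibition.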
Test system: NCI-H322M lung
Assay: DTP human tumour cell line panel, 48 h

| SMILES | GI50 | TGI |
| --- | --- | --- |
| CN1CCN(c2ccc(NC(=O)Nc3ccc4c(ccn4-c4cccc(C(N)=O)n4)c3)cc2C(F)(F)F)CC1 | 7.82 µM | 15.9 µM |
| CCN1CCN(c2ccc(NC(=O)Nc3ccc4c(ccn4-c4ccnc(C(=O)NC)c4)c3)cc2C(F)(F)F)CC1 | 2.28 µM | 4.43 µM |
| CCN(CC)CCn1c2ccc(O)cc2c2sc3cc(OC)ccc3c(=O)c21 | 6.89 µM | 24.7 µM |
| Oc1ccc(CSc2nnc(-c3ccccc3)n2-c2ccccc2)c2cccnc12 | 0.555 µM | > 100 µM |
| Oc1ccc(CSc2nnc(-c3ccc(Oc4ccccc4)cc3)o2)c2cccnc12 | 0.903 µM | > 100 µM |

From PubChem BioAssay (NCI)
